Literature values in PMC11006913.
Some of the results follow.

Molecular target: HOXD13 Q325R (Homo sapiens) (UniProt P35453)
Conditions: PBM; conditions not shown; double strand, one strand shown; scale: upbm affinity estimate (log intensity, higher = more binding, comparable within an allelic series)
In the case of TCTAAAAA [8-mer TCTAAAAA], the binding signal is given as 11.6. For ATAAAACG [8-mer ATAAAACG], the binding signal is listed as 12.1. In the case of TCGTACAA [8-mer TCGTACAA], the binding signal is given as 11.9. In the case of ATAAATAT [8-mer ATAAATAT], the binding signal is listed as 12. In the case of ACGTACAA [8-mer ACGTACAA], the binding signal is given as 11.9. In the case of CTTATCAC [8-mer CTTATCAC], the binding signal is given as 10.6. In the case of GCGATAAA [8-mer GCGATAAA], the binding signal is listed as 12. In the case of ATAAAATC [8-mer ATAAAATC], the binding signal is listed as 12. For GATTAATA [8-mer GATTAATA], the binding signal is listed as 12. In the case of GTACAACA [8-mer GTACAACA], the binding signal is given as 11.8. For ATATTAAA [8-mer ATATTAAA], the binding signal is given as 12.1. For AGTCTAAA [8-mer AGTCTAAA], the binding signal is listed as 11.5. For ATAAAATG [8-mer ATAAAATG], the binding signal is given as 12.1. In the case of ATCTAAAA [8-mer ATCTAAAA], the binding signal is given as 12. For AAGTACAA [8-mer AAGTACAA], the binding signal is given as 11.8. For ATAAAATA [8-mer ATAAAATA], the binding signal is given as 12.1. In the case of TTGTACAA [8-mer TTGTACAA], the binding signal is given as 12. In the case of GTACAAAA [8-mer GTACAAAA], the binding signal is given as 13. For GCGTACAA [8-mer GCGTACAA], the binding signal is listed as 11.9. For AGTATTAA [8-mer AGTATTAA], the binding signal is listed as 12.1. In the case of CGTACAAC [8-mer CGTACAAC], the binding signal is listed as 11.7. In the case of AGGTACAA [8-mer AGGTACAA], the binding signal is listed as 11.4. For ATATAAAG [8-mer ATATAAAG], the binding signal is given as 12. In the case of GCGTACTA [8-mer GCGTACTA], the binding signal is listed as 11.6. For AATAAAAT [8-mer AATAAAAT], the binding signal is listed as 12. In the case of AGTACAAC [8-mer AGTACAAC], the binding signal is listed as 11.3. In the case of TGTCTAAA [8-mer TGTCTAAA], the binding signal is given as 12. In the case of CTTTAGAC [8-mer CTTTAGAC], the binding signal is given as 11.6. In the case of AGTACTAA [8-mer AGTACTAA], the binding signal is given as 12. In the case of CGTACAAA [8-mer CGTACAAA], the binding signal is listed as 12.9. In the case of CATACAAA [8-mer CATACAAA], the binding signal is given as 12. In the case of GGTTGTAC [8-mer GGTTGTAC], the binding signal is listed as 11.4.

Molecular target: HOXD13 R306W (Homo sapiens) (UniProt P35453)
Conditions: PBM; conditions not shown; double strand, one strand shown; scale: upbm affinity estimate (log intensity, higher = more binding, comparable within an allelic series)
For CTCATAAC [8-mer CTCATAAC], the binding signal is listed as 10.7. In the case of GATTAATA [8-mer GATTAATA], the binding signal is listed as 11.5. For ATATTAAA [8-mer ATATTAAA], the binding signal is given as 11.6. In the case of ATAAAATG [8-mer ATAAAATG], the binding signal is given as 11.5. In the case of ATAAAATA [8-mer ATAAAATA], the binding signal is listed as 11.6. For CCCATTAG [8-mer CCCATTAG], the binding signal is listed as 9.71. For AATTTTAT [8-mer AATTTTAT], the binding signal is listed as 11.5. In the case of AATAAAAA [8-mer AATAAAAA], the binding signal is listed as 11.6. In the case of ATTAAATA [8-mer ATTAAATA], the binding signal is listed as 11.6. In the case of ACACCTGT [8-mer ACACCTGT], the binding signal is listed as 10.5. In the case of AATAAAAT [8-mer AATAAAAT], the binding signal is given as 11.8. For CATAAAAG [8-mer CATAAAAG], the binding signal is given as 11.5.
